Measurements: PubChem BioAssay AID1508642 (National Center for Advancing Translational Sciences (NCATS), 2021)
About 200 (0.47%) of roughly 43,000 compounds were called active. Roughly 12% stayed inconclusive and do not appear here. The call rests on the fitted dose curve; in most records, active means well fitted cell-killing curve with a large enough effect; inconclusive means small, poorly fitted or top-dose-only effect, or effect the other way; inactive means flat fitted curve, though single readings scatter. This is one part of the list.

assay: Cell viability qHTS assay in S16 Pmp22-F2sN cells; conditions: S16 Pmp22-F2sN Schwann cells viability, CellTiter-Glo, 24 h; series mostly up to 57.5 µM; activity change, negative = cytotoxicity: at the top concentration; further: nearly all actives have a fitted effect of over 65% in size
Outline: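 S16 Pmp22-F2sN Schwann cells (500-1,000/well) in phenol-red-free DMEM with 10% FBS received 23 nL compound by pin tool for 24 h at 37 °C. Viability was then read as CellTiter-Glo luminescence after 15 min at room temperature.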
On the % scale 0 is the no-effect control and ±100 the full control effect.

SMILES	activity change, negative = cytotoxicity
Cc1ccc(NC(=O)CSc2nnc(-c3cc4occc4n3C)n2-c2ccccc2C)cc1F	inactive: 2.56%
COC(=O)c1c(-c2cccs2)csc1NC(=O)c1cc(OC)cc(OC)c1	inactive: 1.53%
CCN(CC)c1ccc(NC(=O)Cn2c(C)c3cnn(-c4ccccc4)c(=O)c3c2C)c(C)c1	inactive: 5.09%
Cc1cc(Cl)ccc1NC(=O)CCS(=O)(=O)c1cc2c(cc1C)NC(=O)CO2	inactive: 9.93%
Clc1cccc(-n2ncc3c(NCCCc4ccccc4)ncnc32)c1	inactive: -7.09%
Cc1cc(C)cc(NC(=O)C(Cc2ccccc2)N2Cc3ccccc3C2=O)c1 (stereo unspecified)	inactive: 1.37%
Cc1ccc(CNC(=O)C(CC(C)C)N2Cc3ccccc3C2=O)cc1 (stereo unspecified)	inactive: -10.6%
O=C(NCCSc1c(-c2ccc(Br)cc2)[nH]c2ccccc12)c1ccc(S(=O)(=O)N2CCOCC2)cc1	inactive: -19%
CCC(=O)Nc1cc(C(=O)NCc2ccc(C)cc2)ccc1S(=O)(=O)c1ccc(C)cc1	inactive: -2.42%
Cc1ccc(CCNC(=O)c2sc3ncccc3c2-n2cccc2)cc1	inactive: -0.991%
COc1cc(NC(=O)c2nc3cc(C)c(C)cc3n(C)c2=O)cc(OC)c1OC	inactive: 6.4%
COc1cccc(NC(=O)CSc2nc(O)c(C/C=C/c3ccccc3)c(=O)[nH]2)c1	inactive: -1.06%
COc1ccc(N2CCN(S(=O)(=O)c3ccc(-c4cc(C(F)(F)F)on4)s3)CC2)cc1	inactive: 6.54%
CC1CCC(NC(=O)C2(C)Cc3ccccc3C(=O)N2Cc2ccccc2Cl)CC1 (stereo unspecified)	inactive: 24.7%
CCc1cccc(C)c1Nc1c(-c2ccc(N(C)C)cc2)nc2ncccn12	inactive: -18.8%
Cc1cccc(OCc2ccc(-c3nc(C#N)c(N4CCN(c5ccccc5)CC4)o3)o2)c1	inactive: 14.1%
Cc1cc(C)c2oc(C(=O)Nc3c(C(=O)c4ccc(F)cc4)oc4ccccc34)cc(=O)c2c1	inactive: 4.16%
CCCCn1c(Oc2cccc(C(=O)OC)c2)nc2c1c(=O)n(C)c(=O)n2C	inactive: -17.4%
CCOc1ccc(NC(=O)Cn2nnc(C(=O)OC)c2C(=O)OC)cc1	inactive: 2.82%
Cc1ccc(C(=O)NCC(=O)OCc2cc(=O)n3nc(C4CCCCC4)sc3n2)cc1	inactive: -0.702%
COc1ccc(Cl)cc1NC(=O)C(C)n1nnc2sc3c(c2c1=O)CCCC3 (stereo unspecified)	inactive: 10.5%

SMILES	activity change, negative = cytotoxicity
Cc1cc(C)cc(N2C(=O)CC(c3ccc(C(F)(F)F)cc3)C3=C2COC3=O)c1 (stereo unspecified)	inactive: 6.07%
COc1ccccc1C(=O)Nc1cc(-c2cccc(Br)c2)nn1-c1ccccc1	inactive: -22.7%
CCN1CCN(c2csc3ccc(Cl)cc3c2=O)CC1	inactive: 6.89%
CCc1cccc(NC(=O)Cn2nc(CC)n3c(cc4cc(C)ccc43)c2=O)c1	inactive: 1.2%
O=c1oc2ccc3ccccc3c2cc1-c1nnc(Nc2ccccc2)s1	inactive: 9.18%
COc1ccc(C(=O)NC2(C(F)(F)F)C(=O)NC(C)=C2C#N)cc1 (stereo unspecified)	inactive: 10.1%
CCC(Oc1ccc(F)cc1)C(=O)Nc1cc(-c2ccc(C)cc2)no1 (stereo unspecified)	inactive: -0.923%
COc1cccc(CNC(=O)Nc2cc(C(=O)NCc3cccc(F)c3)ccc2N2CCCC2)c1	inactive: 4.98%
CCNC(=O)CCSc1nnc(-c2ccc(O)cc2)o1	inactive: 0.719%
Cn1c(=O)c2ccccc2n2c(CCC(=O)N3CCN(c4cccc(Cl)c4)CC3)nnc12	inactive: 2.19%
CCN(CC)c1ccc(NC(=O)c2cc(CN3CCCC3)on2)c(C)c1	inactive: -26.4%
CCOc1cc(CNC(=O)c2ccc(NC(=O)c3nsc4ccccc34)cc2)ccc1OC	inactive: -16.4%
COc1ccccc1NC(=O)CSc1nc2c(oc3ccccc32)c(=O)n1-c1ccc(C)cc1	inactive: -1.73%
CCOC(=O)N1CCc2c(sc3c2c(=O)n(-c2ccc(Cl)cc2)c(=O)n3CC(=O)c2ccc(F)cc2)C1	inactive: 0.228%
COc1ccc(NS(=O)(=O)c2nnc(NC(=O)c3ccccc3F)s2)cc1	inactive: -2.53%
Cc1cc(Br)ccc1NC(=O)c1cc2c(s1)-c1ccccc1SC2	inactive: -4.69%
O=C(CCCn1c(=O)c2cccn2c2cccnc21)NCCc1ccc(Cl)cc1	inactive: 7.92%
COc1ccc(CN2C(=O)C(NC(=O)c3ccc(C)cc3)(C(F)(F)F)N=C2c2ccccc2)cc1 (stereo unspecified)	inactive: 10.3%
Cc1ccc(CNc2nc3c(S(=O)(=O)c4ccccc4)nnn3c3ccsc23)cc1	inactive: 3.19%
CCOc1ccc(NC(=O)Cc2csc(COc3cccc(C)c3)n2)cc1	inactive: -5.5%
CCOc1ccccc1C1C(C(=O)Nc2ccccc2OC)=C(C)Nc2nc3ccccc3n21 (stereo unspecified)	inactive: 26.6%

SMILES	activity change, negative = cytotoxicity
Cc1ccc2nc(NC(=O)c3cc(=O)c4cc(C)c(C)cc4o3)sc2c1	inactive: -0.514%
Cc1ccc(C)c(NC(=O)CSc2cn(CC(=O)N3CCCC3)c3ccccc23)c1	inactive: -0.406%
CCCN1C(=O)C(NC(=O)c2ccccc2OC)(C(F)(F)F)C(C(=O)OC)=C1C (stereo unspecified)	inactive: 3.61%
CCc1nnc2c3ccccc3nc(N3CCN(c4ccc(C)cc4C)CC3)n12	inactive: 2.35%
O=C(NCCc1csc(-c2cccnc2)n1)c1cccc(C(F)(F)F)c1	inactive: -4.65%
COc1ccccc1CNC(=O)c1ccc(C)c(-n2cnc3cccnc32)c1	inactive: 0.0891%
COc1cccc(NC(=O)Cn2c(=O)n(-c3ccc(CC(=O)NCC4CCCO4)cc3)c(=O)c3ccccc32)c1 (stereo unspecified)	inactive: 2.62%
CCOc1ccccc1NC(=O)c1cccc2c1C(=O)N(C1CCCCC1)C2	inactive: 9.22%
CCC(=O)Nc1nnc(S(=O)(=O)N(C)Cc2ccccc2)s1	inactive: 10.1%
CSc1ncc(Cl)c(C(=O)N(Cc2ccccc2Cl)C2CCS(=O)(=O)C2)n1 (stereo unspecified)	inactive: 6.72%
Cc1ccc(Cl)cc1NC(=O)Cn1c(=O)c(CNc2ccccc2)cc2cc3c(cc21)OCCO3	inactive: -0.984%
Cc1sc2ncn(CC(=O)Nc3cccc(C(F)(F)F)c3)c(=O)c2c1S(=O)(=O)N1CCC(C)CC1	inactive: -14.3%
COc1cccc(C(=O)NC(=O)Nc2ccc(-c3cc(C(F)(F)F)nn3-c3ccccc3)cc2)c1	inactive: 1.15%
COc1ccc(C2c3c(-c4ccccc4O)n[nH]c3C(=O)N2Cc2ccco2)cc1 (stereo unspecified)	inactive: -5.15%
CCOC(=O)C1=C(CN2CCN(c3ccccc3)CC2)NC(=O)NC1c1ccc(C)cc1 (stereo unspecified)	inactive: 5.81%
O=C(Nc1ccccc1C(=O)OCc1cc(=O)n2nc(C3CC3)sc2n1)c1cccc(Cl)c1	inactive: 5.46%
COc1ccc(C(=O)Nc2cc(C(F)(F)F)ccc2N2CCN(c3ccccc3)CC2)cc1OC	inactive: 6.91%
Cc1cccc(Cn2c(CN3CCC(C(=O)NCCc4ccccc4)CC3)cc3ccccc32)c1	inactive: -18.1%
CCN(c1cccc(C)c1)S(=O)(=O)c1nnc(NC(=O)c2cccs2)s1	inactive: -0.409%
